# Source: PubChem BioAssay AID504706 (National Center for Advancing Translational Sciences (NCATS), 2011)
# The campaign covered roughly 320,000 compounds. About 200 (0.062%) were called active. This list was built around the results that the source calls inconclusive (neither active nor inactive); the mix of calls is not that of the screen. The call rests on the fitted dose curve; in most records, active means well fitted activation curve with a large enough effect; inconclusive means small, poorly fitted or top-dose-only effect; inactive means no such curve, though single readings can be large or run the other way. No potency is given beside an inconclusive call; the fits are too rough.
# Assay: qHTS assay for re-activators of p53 using a Luc reporter; further: nearly all actives have a fitted effect of over 45% in size; on activity change, positive = activation: % of control where 0% means no effect
# Details: H1299 p53-A138V BP100-luciferase reporter, luminescence, 24 h; series mostly up to 92.2 µM; activity change, positive = activation: at the top concentration
# Procedure, shortened: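 p53-null H1299 cells stably carrying temperature-sensitive p53-A138V and a BP100-luciferase reporter were pinned with compounds (4-point, 1:5 series) and held 24 hrs at 37 deg C. Luminescence was read 10 min after detection reagent.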
# Potency means the concentration at half of the fitted maximal effect; tags describe the fitted curve by direction and shape.
SMILES,Potency,"activity change, positive = activation"
COc1ccc(C(=O)NCCN2C(=O)S/C(=C\c3cccnc3)C2=O)cc1[N+](=O)[O-],"inconclusive [activator, single point]",–
CNC(=S)N1N=C(c2ccc(C)cc2)CC1c1ccc(N(C)C)cc1 (stereo unspecified),–,inactive: -1.07%
Cc1ccc(NCCC(=O)c2cccs2)cc1C,–,inactive: 7.19%
O=C(Nc1ccc2c(c1)OCO2)C1CCN(C(=O)CSc2ncnc3ccccc23)CC1,"inconclusive [activator, single point]",–
Cc1cccc(NC(=O)/C=C/c2ccc(Cl)cc2)n1,"inconclusive [activator, full curve, poor fit]",–
CCc1ccc(C(O)(CNCc2ccccc2)c2ccccc2)cc1 (stereo unspecified),–,inactive: 2.66%
CCCc1ccc(OCC(=O)O)cc1,–,inactive: 1.93%
C=CCn1c(CCCNC(=O)C(C)(C)C)nc2ccccc21,"inconclusive [activator, single point]",–
CCOC(=O)C1(Cc2cccc(OC)c2)CCN(Cc2cccnc2)CC1,–,inactive: 4.44%
COC(=O)C1C2C=CC3(CN(CC4CCCO4)C(=O)C13)O2 (stereo unspecified),"inconclusive [activator, single point]",–
O=C(CSC1=NNC(c2ccccn2)S1)Nc1ccccc1 (stereo unspecified),–,inactive: 14.9%
O=C(Nc1cnc2ccccc2c1)c1ccco1,"inconclusive [activator, full curve, poor fit]",–
O=[N+]([O-])c1cc(CN2CCCC2)ccc1Sc1ccc(Cl)cc1,–,inactive: 4.85%
Cc1ccc(-c2noc(CSc3nnc(CCc4ccccc4)n3-c3ccccc3)n2)cc1,"inconclusive [activator, partial curve, poor fit]",–
CC1CCCCC1NC(=O)CN1CCN(S(=O)(=O)c2ccc(Br)s2)CC1 (stereo unspecified),–,inactive: -5.12%
CCc1ccc(-c2nc(C(N)=O)c3[nH]c(=O)n(-c4ccccc4OC)c3n2)cc1,–,inactive: -4.21%
CCCCCN(C(=O)CCC(=O)OCC(=O)N1CCCCC1)c1c(N)n(CCCC)c(=O)[nH]c1=O,"inconclusive [activator, partial curve, poor fit]",–
CC(C)c1ccc(C(=O)NCCCc2ccccc2)cc1,"inconclusive [activator, full curve, poor fit]",–
Oc1c(Cl)cc(Cl)cc1C=Nc1ccc2c(c1)OCCO2,"inconclusive [activator, partial curve, poor fit]",–
COc1ccccc1-c1cc(C(=O)NC2CCN(C)CC2)c2ccc(Cl)c(C)c2n1,"inconclusive [activator, single point]",–
Cc1ccc(C(=O)N/N=C\c2cccc(OC(=O)c3cccc(F)c3)c2)cn1,"inconclusive [activator, single point]",–
